# The list shows a part of the results.
# B1: OrfX (Escherichia coli), Q9X4B6_ECOLX (protein)
# chain: MIKIARIAVTLGLLSSLGAQAYAAGLVVNDNDLRNDLAWLSDRGVIHLSLSTWPLSQEEIARALKKAKPSYSSEQVVLARINQRLSALKADFRVTGYTSTDQPGTPQGFGQTQPADNSLGLAFNNSGEWWDVHLQGNVEGGERISNGSRFNANGAYGAVKFWNQWLSFGQVPQWWGPGYEGSLIRGDAMRPMTGFLMQRAEQAAPETWWLRWVGPWQYQISASQMNQYTAVPHAKIIGGRFTFTPFQSLELGASRIMQWGGEGRPQSFSSFWDGFTGHDNTGTDNEPGNQLAGFDFKFKLEPTLGWPVSFYGQMVGEDESGYLPSANMFLGGVEGHHGWGKDTVNWYVEAHDTRTNMSRTNYSYTHHIYKDGYYQQGYPLGDAMGGDGQLIAGKVELITEDNQRWSTRLVYAKVNPENQSINKAFPHADTLKGLQLGWSGDVYQSVRLNTSLWYTNANNSDSDDVGASAGIEIPFSL
# Columns and labels:
# Experiment in all cases: glycan array binding signal (z-score within array); higher = stronger binding
# Conditions in all cases: glycan notation: IUPAC condensed, linker removed
# [1] = biological target: Fuc(a1-2)Gal
# Procedure, shortened: (§1)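 Columns mapping to the same glycan were averaged after glycan names were converted to IUPAC-condensed notation. The data come from 3228 arrays in the Consortium for Functional Glycomics database, limited to those with an available protein sequence. Binding is reported as a within-array Z-score averaged across arrays of one protein sequence and across linkers.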
# [2] = biological target: Fuc(a1-2)Gal(b1-3)GalNAc
# Procedure, shortened: as §1
# [3] = biological target: Fuc(a1-2)Gal(b1-3)GalNAc(a1-3)[Fuc(a1-2)]Gal(b1-4)Glc
# Procedure, shortened: as §1
# [4] = biological target: Fuc(a1-2)Gal(b1-3)GalNAc(a1-3)[Fuc(a1-2)]Gal(b1-4)GlcNAc
# Procedure, shortened: as §1
# [5] = biological target: Fuc(a1-2)Gal(b1-3)GalNAc(b1-3)Gal
# Procedure, shortened: as §1
# [6] = biological target: Fuc(a1-2)Gal(b1-3)GalNAc(b1-3)Gal(a1-4)Gal(b1-4)Glc
# Procedure, shortened: as §1
# [7] = biological target: Fuc(a1-2)Gal(b1-3)GalNAc(b1-4)[Neu5Ac(a2-3)]Gal(b1-4)Glc
# Procedure, shortened: as §1
# [8] = biological target: Fuc(a1-2)Gal(b1-3)GlcNAc
# Procedure, shortened: as §1
# [9] = biological target: Fuc(a1-2)Gal(b1-3)GlcNAc(b1-2)Man(a1-3)[Fuc(a1-2)Gal(b1-3)GlcNAc(b1-2)Man(a1-6)]Man(b1-4)GlcNAc(b1-4)GlcNAc
# Procedure, shortened: as §1
# [10] = biological target: Fuc(a1-2)Gal(b1-3)GlcNAc(b1-2)Man(a1-3)[Fuc(a1-2)Gal(b1-3)GlcNAc(b1-2)Man(a1-6)]Man(b1-4)GlcNAc(b1-4)[Fuc(a1-6)]GlcNAc
# Procedure, shortened: as §1
# [11] = biological target: Fuc(a1-2)Gal(b1-3)GlcNAc(b1-3)Gal(b1-4)Glc
# Procedure, shortened: as §1
# [12] = biological target: Fuc(a1-2)Gal(b1-3)GlcNAc(b1-3)GalNAc
# Procedure, shortened: as §1
# [13] = biological target: Fuc(a1-2)Gal(b1-3)GlcNAc(b1-3)[Fuc(a1-2)Gal(b1-3)GlcNAc(b1-6)]GalNAc
# Procedure, shortened: as §1
# [14] = biological target: Fuc(a1-2)Gal(b1-3)GlcNAc(b1-3)[Fuc(a1-3)[Gal(b1-4)]GlcNAc(b1-6)]Gal(b1-4)Glc
# Procedure, shortened: as §1
# [15] = biological target: Fuc(a1-2)Gal(b1-3)GlcNAc(b1-3)[Gal(b1-4)GlcNAc(b1-6)]Gal(b1-4)Glc
# Procedure, shortened: as §1
# [16] = biological target: Fuc(a1-2)Gal(b1-3)GlcNAc(b1-3)[Neu5Ac(a2-6)Gal(b1-4)GlcNAc(b1-6)]Gal(b1-4)Glc
# Procedure, shortened: as §1
# [17] = biological target: Fuc(a1-2)Gal(b1-3)GlcNAc6S
# Procedure, shortened: as §1
# [18] = biological target: Fuc(a1-2)Gal(b1-3)[Fuc(a1-4)]GlcNAc
# Procedure, shortened: as §1
# [19] = biological target: Fuc(a1-2)Gal(b1-3)[Fuc(a1-4)]GlcNAc(b1-2)Man(a1-3)[Fuc(a1-2)Gal(b1-3)[Fuc(a1-4)]GlcNAc(b1-2)Man(a1-6)]Man(b1-4)GlcNAc(b1-4)GlcNAc
# Procedure, shortened: as §1
# [20] = biological target: Fuc(a1-2)Gal(b1-3)[Fuc(a1-4)]GlcNAc(b1-2)Man(a1-6)[Fuc(a1-2)Gal(b1-3)[Fuc(a1-4)]GlcNAc(b1-2)Man(a1-3)]Man(b1-4)GlcNAc(b1-4)[Fuc(a1-6)]GlcNAc
# Procedure, shortened: as §1
# [21] = biological target: Fuc(a1-2)Gal(b1-3)[Fuc(a1-4)]GlcNAc(b1-3)[Fuc(a1-3)[Gal(b1-4)]GlcNAc(b1-6)]Gal(b1-4)Glc
# Procedure, shortened: as §1
# [22] = biological target: Fuc(a1-2)Gal(b1-3)[Fuc(a1-4)]GlcNAc(b1-3)[Gal(b1-4)GlcNAc(b1-6)]Gal(b1-4)Glc
# Procedure, shortened: as §1
# [23] = biological target: Fuc(a1-2)Gal(b1-4)Glc
# Procedure, shortened: as §1
# [24] = biological target: Fuc(a1-2)Gal(b1-4)Glc6S
# Procedure, shortened: as §1
# [25] = biological target: Fuc(a1-2)Gal(b1-4)GlcNAc
# Procedure, shortened: as §1
# [26] = biological target: Fuc(a1-2)Gal(b1-4)GlcNAc(b1-2)Man
# Procedure, shortened: as §1
# [27] = biological target: Fuc(a1-2)Gal(b1-4)GlcNAc(b1-2)Man(a1-3)[Fuc(a1-2)Gal(b1-4)GlcNAc(b1-2)Man(a1-6)]Man(b1-4)GlcNAc(b1-4)GlcNAc
# Procedure, shortened: as §1
# [28] = biological target: Fuc(a1-2)Gal(b1-4)GlcNAc(b1-2)Man(a1-3)[Fuc(a1-2)Gal(b1-4)GlcNAc(b1-2)Man(a1-6)]Man(b1-4)GlcNAc(b1-4)[Fuc(a1-6)]GlcNAc
# Procedure, shortened: as §1
# [29] = biological target: Fuc(a1-2)Gal(b1-4)GlcNAc(b1-2)[Fuc(a1-2)Gal(b1-4)GlcNAc(b1-4)]Man(a1-3)[Fuc(a1-2)Gal(b1-4)GlcNAc(b1-2)Man(a1-6)]Man(b1-4)GlcNAc(b1-4)GlcNAc
# Procedure, shortened: as §1
# [30] = biological target: Fuc(a1-2)Gal(b1-4)GlcNAc(b1-3)Gal(b1-4)GlcNAc
# Procedure, shortened: as §1
binder,measurement,setting,value
B1,glycan array binding signal (z-score),[1],-0.19
same,glycan array binding signal (z-score),[2],-0.156
same,glycan array binding signal (z-score),[3],-0.28
same,glycan array binding signal (z-score),[4],-0.271
same,glycan array binding signal (z-score),[5],-0.037
same,glycan array binding signal (z-score),[6],-0.087
same,glycan array binding signal (z-score),[7],-0.21
same,glycan array binding signal (z-score),[8],-0.12
same,glycan array binding signal (z-score),[9],-0.1
same,glycan array binding signal (z-score),[10],-0.201
same,glycan array binding signal (z-score),[11],-0.116
same,glycan array binding signal (z-score),[12],-0.344
same,glycan array binding signal (z-score),[13],-0.33
same,glycan array binding signal (z-score),[14],-0.181
same,glycan array binding signal (z-score),[15],-0.005
same,glycan array binding signal (z-score),[16],-0.225
same,glycan array binding signal (z-score),[17],0.028
same,glycan array binding signal (z-score),[18],-0.033
same,glycan array binding signal (z-score),[19],1.12
same,glycan array binding signal (z-score),[20],0.679
same,glycan array binding signal (z-score),[21],-0.249
same,glycan array binding signal (z-score),[22],-0.181
same,glycan array binding signal (z-score),[23],-0.225
same,glycan array binding signal (z-score),[24],-0.115
same,glycan array binding signal (z-score),[25],-0.223
same,glycan array binding signal (z-score),[26],-0.049
same,glycan array binding signal (z-score),[27],-0.214
same,glycan array binding signal (z-score),[28],-0.113
same,glycan array binding signal (z-score),[29],-0.469
same,glycan array binding signal (z-score),[30],-0.191
